# Experimental data as given in the supplement of paper PMC8728848.
# The other results are listed elsewhere or left out.
# Key:
# Experiment in all cases: glycan array binding signal (z-score within array); higher = stronger binding
# Details in all cases: glycan notation: IUPAC condensed, linker removed
# [1] = target: Neu5Ac(a2-3)Gal(b1-3)GlcNAc6S
# In short: (§1)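 The binding signal is a Z-score computed within each array. Data were drawn from 3228 arrays in the Consortium for Functional Glycomics database, restricted to those with a known protein sequence. Scores were averaged over arrays of the same protein sequence at different concentrations or buffers, and over linkers, and negative values can be taken as non-binding.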
# [2] = target: Neu5Ac(a2-3)Gal(b1-3)[Fuc(a1-4)]GlcNAc
# In short: as §1
# [3] = target: Neu5Ac(a2-3)Gal(b1-3)[Fuc(a1-4)]GlcNAc(b1-3)Gal(b1-3)[Fuc(a1-4)]GlcNAc
# In short: as §1
# [4] = target: Neu5Ac(a2-3)Gal(b1-3)[Fuc(a1-4)]GlcNAc(b1-3)Gal(b1-4)[Fuc(a1-3)]GlcNAc
# In short: as §1
# [5] = target: Neu5Ac(a2-3)Gal(b1-3)[GlcNAc(b1-6)]GalNAc
# In short: as §1
# [6] = target: Neu5Ac(a2-3)Gal(b1-3)[Neu5Ac(a2-6)]GalNAc
# In short: as §1
# [7] = target: Neu5Ac(a2-3)Gal(b1-3)[Neu5Ac(a2-6)]GlcNAc(b1-3)[Fuc(a1-3)[Gal(b1-4)]GlcNAc(b1-6)]Gal(b1-4)Glc
# In short: as §1
# [8] = target: Neu5Ac(a2-3)Gal(b1-3)]Neu5Ac(a2-3)Gal(b1-4)]GlcNAc
# In short: as §1
# [9] = target: Neu5Ac(a2-3)Gal(b1-4)Glc
# In short: as §1
# [10] = target: Neu5Ac(a2-3)Gal(b1-4)GlcNAc
# In short: as §1
# [11] = target: Neu5Ac(a2-3)Gal(b1-4)GlcNAc(b1-2)Man
# In short: as §1
# [12] = target: Neu5Ac(a2-3)Gal(b1-4)GlcNAc(b1-2)Man(a1-3)[GlcNAc(b1-4)][Neu5Ac(a2-3)Gal(b1-4)GlcNAc(b1-2)Man(a1-6)]Man(b1-4)GlcNAc(b1-4)GlcNAc
# In short: as §1
# [13] = target: Neu5Ac(a2-3)Gal(b1-4)GlcNAc(b1-2)Man(a1-3)[Neu5Ac(a2-3)Gal(b1-4)GlcNAc(b1-2)Man(a1-6)]Man(b1-4)GlcNAc(b1-4)GlcNAc
# In short: as §1
# [14] = target: Neu5Ac(a2-3)Gal(b1-4)GlcNAc(b1-2)Man(a1-3)[Neu5Ac(a2-3)Gal(b1-4)GlcNAc(b1-2)Man(a1-6)]Man(b1-4)GlcNAc(b1-4)[Fuc(a1-6)]GlcNAc
# In short: as §1
# [15] = target: Neu5Ac(a2-3)Gal(b1-4)GlcNAc(b1-2)Man(a1-3)[Neu5Ac(a2-6)Gal(b1-4)GlcNAc(b1-2)Man(a1-6)]Man(b1-4)GlcNAc(b1-4)GlcNAc
# In short: as §1
# [16] = target: Neu5Ac(a2-3)Gal(b1-4)GlcNAc(b1-2)[Neu5Ac(a2-3)Gal(b1-4)GlcNAc(b1-4)]Man(a1-3)[GlcNAc(b1-4)][Neu5Ac(a2-3)Gal(b1-4)GlcNAc(b1-2)[Neu5Ac(a2-3)Gal(b1-4)GlcNAc(b1-6)]Man(a1-6)]Man(b1-4)GlcNAc(b1-4)GlcNAc
# In short: as §1
# [17] = target: Neu5Ac(a2-3)Gal(b1-4)GlcNAc(b1-2)[Neu5Ac(a2-3)Gal(b1-4)GlcNAc(b1-4)]Man(a1-3)[GlcNAc(b1-4)][Neu5Ac(a2-3)Gal(b1-4)GlcNAc(b1-4)Man(a1-6)]Man(b1-4)GlcNAc(b1-4)GlcNAc
# In short: as §1
# [18] = target: Neu5Ac(a2-3)Gal(b1-4)GlcNAc(b1-2)[Neu5Ac(a2-3)Gal(b1-4)GlcNAc(b1-6)]Man(a1-6)[Neu5Ac(a2-3)Gal(b1-4)GlcNAc(b1-2)Man(a1-3)][GlcNAc(b1-4)]Man(b1-4)GlcNAc(b1-4)GlcNAc
# In short: as §1
# [19] = target: Neu5Ac(a2-3)Gal(b1-4)GlcNAc(b1-3)Gal
# In short: as §1
# [20] = target: Neu5Ac(a2-3)Gal(b1-4)GlcNAc(b1-3)Gal(b1-3)GlcNAc
# In short: as §1
# [21] = target: Neu5Ac(a2-3)Gal(b1-4)GlcNAc(b1-3)Gal(b1-4)GlcNAc
# In short: as §1
# [22] = target: Neu5Ac(a2-3)Gal(b1-4)GlcNAc(b1-3)Gal(b1-4)GlcNAc(b1-2)Man(a1-3)[Neu5Ac(a2-3)Gal(b1-4)GlcNAc(b1-3)Gal(b1-4)GlcNAc(b1-2)Man(a1-6)]Man(b1-4)GlcNAc(b1-4)GlcNAc
# In short: as §1
# [23] = target: Neu5Ac(a2-3)Gal(b1-4)GlcNAc(b1-3)Gal(b1-4)GlcNAc(b1-3)Gal(b1-4)GlcNAc
# In short: as §1
# [24] = target: Neu5Ac(a2-3)Gal(b1-4)GlcNAc(b1-3)Gal(b1-4)GlcNAc(b1-3)Gal(b1-4)GlcNAc(b1-2)Man(a1-3)[Neu5Ac(a2-3)Gal(b1-4)GlcNAc(b1-3)Gal(b1-4)GlcNAc(b1-3)Gal(b1-4)GlcNAc(b1-2)Man(a1-6)]GalNAc
# In short: as §1
# [25] = target: Neu5Ac(a2-3)Gal(b1-4)GlcNAc(b1-3)Gal(b1-4)GlcNAc(b1-3)GalNAc
# In short: as §1
# [26] = target: Neu5Ac(a2-3)Gal(b1-4)GlcNAc(b1-3)Gal(b1-4)GlcNAc(b1-3)[Neu5Ac(a2-3)Gal(b1-4)GlcNAc(b1-3)Gal(b1-4)GlcNAc(b1-6)]GalNAc
# In short: as §1
# [27] = target: Neu5Ac(a2-3)Gal(b1-4)GlcNAc(b1-3)Gal(b1-4)GlcNAc(b1-6)[Gal(b1-3)]GalNAc
# In short: as §1
# [28] = target: Neu5Ac(a2-3)Gal(b1-4)GlcNAc(b1-3)Gal(b1-4)[Fuc(a1-3)]GlcNAc
# In short: as §1
# [29] = target: Neu5Ac(a2-3)Gal(b1-4)GlcNAc(b1-3)GalNAc
# In short: as §1
# [30] = target: Neu5Ac(a2-3)Gal(b1-4)GlcNAc(b1-3)[Neu5Ac(a2-3)Gal(b1-4)GlcNAc(b1-6)]GalNAc
# In short: as §1
binder,measurement,setting,value
BT3172pd (Bacteroides thetaiotaomicron) (protein) MLPLRAEHYYYKQISLKEGLPSNVRCILRDEQGFIWIGTKAGLGKFDGHQLKRYKHQANDPHSLLHNLIYQIAEDKQHNIWILTEKGIARYQQQSNNFTFPTDEEGNYITAYSFCLVPDGILFGGKDRIYKYSYKDSSLRLLQYFNANSFKITALSVWDSKTLLCCSRWTGLYLVDLQTGEHRRPPFDCGPEITSMITDSKNRIWIAPYSGGLRCYSRDGKLSASYTTHNSSLSNDIVLSLAEREEQLWIGTDGGGINILHPETGEISQLEYIPGRENYSLPANSILCLHNDYNNNVWAGSTCNGLISIREVSMKTYTDVVPGNDRGLSNGTVRSLYRQSPDSIWIGTDGGGINLFSPHTEKFTHYSSTWGDKVAFISGFTPGKLLISLFSKGVFVFNPATGEKQPFTIIDKETTTRLCNRGKSVNLYQNTPNTVLFLGDHIYQYHLKEKKFSTITEEEGKDIVGTLVPFDHQENLTYINDIKHIYELDDQTSRLKTVFECYTDTVISSVSHDEQGHFWIGSNFGLIHYDPVLKSRTLVPTNLFTEINMVLCDQKGKVWIGVDNMLFAYFIKEQKFVLFGESNGAIQNEYLPNARLVNEQGDAYIGGVKGMLRIDGQLLLNTSEMPELQLLDITINGESANHEWYNHPAKISVPWNSNISIRIMSREEDIFRQKIYRYQIEGLNNEYTESYNPELVIRSLLPGSYRIMASCTAKDGSWIPDQQVLELTVLPPWYRTHHHHHH,glycan array binding signal (z-score),[1],-0.233
same,glycan array binding signal (z-score),[2],-0.042
same,glycan array binding signal (z-score),[3],-0.751
same,glycan array binding signal (z-score),[4],-0.349
same,glycan array binding signal (z-score),[5],-0.406
same,glycan array binding signal (z-score),[6],0.159
same,glycan array binding signal (z-score),[7],0.256
same,glycan array binding signal (z-score),[8],-0.007
same,glycan array binding signal (z-score),[9],4.78
same,glycan array binding signal (z-score),[10],-0.355
same,glycan array binding signal (z-score),[11],0.181
same,glycan array binding signal (z-score),[12],-0.814
same,glycan array binding signal (z-score),[13],0.618
same,glycan array binding signal (z-score),[14],0.157
same,glycan array binding signal (z-score),[15],-0.611
same,glycan array binding signal (z-score),[16],-0.441
same,glycan array binding signal (z-score),[17],-0.247
same,glycan array binding signal (z-score),[18],-0.581
same,glycan array binding signal (z-score),[19],-0.022
same,glycan array binding signal (z-score),[20],-0.565
same,glycan array binding signal (z-score),[21],-0.347
same,glycan array binding signal (z-score),[22],-0.54
same,glycan array binding signal (z-score),[23],-0.599
same,glycan array binding signal (z-score),[24],0.088
same,glycan array binding signal (z-score),[25],-0.253
same,glycan array binding signal (z-score),[26],-0.065
same,glycan array binding signal (z-score),[27],0.094
same,glycan array binding signal (z-score),[28],-0.565
same,glycan array binding signal (z-score),[29],0.355
same,glycan array binding signal (z-score),[30],-0.088
